The record followed here is paper PMC4336329 (PLoS ONE, 2015).

Structures are written as SMILES. The whole screen tested about 310,000 compounds, of which about 14,000 (4.5%) showed an effect of 50% or more. The effect is printed as a negative number. This is one part of the list.
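Also: peak tail current of the secondary pulse compared with the same well before compound.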

The assay deals with human ether-à-go-go-related gene (hERG) potassium channel (human, UniProt Q12809). Kind of assay: primary screen, population patch clamp on CHO cells stably expressing hERG.
Sequence of human ether-à-go-go-related gene (hERG) potassium channel (Q12809 whole entry, looked up): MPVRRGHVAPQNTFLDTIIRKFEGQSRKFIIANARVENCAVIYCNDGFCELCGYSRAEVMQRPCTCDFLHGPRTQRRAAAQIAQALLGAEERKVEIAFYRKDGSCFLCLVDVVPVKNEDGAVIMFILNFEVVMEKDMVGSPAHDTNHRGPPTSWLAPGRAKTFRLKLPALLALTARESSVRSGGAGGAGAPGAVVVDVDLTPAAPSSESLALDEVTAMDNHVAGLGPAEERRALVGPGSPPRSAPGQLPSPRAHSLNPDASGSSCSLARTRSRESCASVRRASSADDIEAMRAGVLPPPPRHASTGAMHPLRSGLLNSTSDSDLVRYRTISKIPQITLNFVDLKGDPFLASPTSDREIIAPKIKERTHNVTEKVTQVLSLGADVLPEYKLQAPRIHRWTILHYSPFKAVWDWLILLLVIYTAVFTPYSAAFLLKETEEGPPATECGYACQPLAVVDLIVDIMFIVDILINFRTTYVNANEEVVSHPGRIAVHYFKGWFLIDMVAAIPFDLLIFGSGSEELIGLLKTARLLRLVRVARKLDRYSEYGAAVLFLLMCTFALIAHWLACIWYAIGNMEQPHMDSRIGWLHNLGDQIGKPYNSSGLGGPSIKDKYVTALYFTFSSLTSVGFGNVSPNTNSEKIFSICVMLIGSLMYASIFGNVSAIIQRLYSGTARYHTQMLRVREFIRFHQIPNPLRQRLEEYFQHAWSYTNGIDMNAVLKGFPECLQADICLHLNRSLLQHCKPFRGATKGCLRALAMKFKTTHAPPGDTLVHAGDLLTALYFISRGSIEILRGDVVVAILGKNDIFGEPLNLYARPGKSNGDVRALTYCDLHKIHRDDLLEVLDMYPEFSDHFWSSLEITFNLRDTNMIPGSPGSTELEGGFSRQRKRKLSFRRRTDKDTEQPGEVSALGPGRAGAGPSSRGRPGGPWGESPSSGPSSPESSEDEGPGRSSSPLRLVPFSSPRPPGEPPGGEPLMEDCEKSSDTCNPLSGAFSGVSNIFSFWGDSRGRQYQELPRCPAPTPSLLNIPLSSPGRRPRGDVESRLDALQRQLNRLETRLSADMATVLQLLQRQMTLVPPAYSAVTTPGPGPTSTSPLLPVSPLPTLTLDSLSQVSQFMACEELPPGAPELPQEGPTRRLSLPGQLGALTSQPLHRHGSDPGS
As for `COc1ccc(S(=O)(=O)N2CCCC(C(=O)NCCCn3ccnc3)C2)cc1OC` (stereo not shown), the “hERG current change (%, negative = inhibition) at 10uM” value is listed as 7.83%.

Consider `Cl.N[C@@H](CCl)C(=O)O`, for which the “hERG current change (%, negative = inhibition) at 10uM” value came to 2.44%. On to `COc1ccc(C(CNCC(=O)Nc2ccccc2F)N(C)C)cc1.O=C(O)C(=O)O` (stereo not shown), for which the “hERG current change (%, negative = inhibition) at 10uM” value is -35.1%.

As to `CC1OC(Nc2cccc3ccccc23)C(O)C(O)C1O` (stereo not shown), the “hERG current change (%, negative = inhibition) at 10uM” value was 0.146%. Regarding `Cc1cccc(SCc2noc(C(=O)NCC3CCCO3)c2C(=O)O)c1` (stereo not shown), the “hERG current change (%, negative = inhibition) at 10uM” value is given as 8.89%.

Regarding `O=C(CN(C(=O)CNC(=O)c1ccco1)c1ccc2c(c1)OCO2)NC1CCCCC1`, the “hERG current change (%, negative = inhibition) at 10uM” value is given as -4.4%. Regarding `O=C1CN(C(=O)CSc2nc3ccccc3c(=O)n2CCCN2CCOCC2)c2ccccc2N1`, the “hERG current change (%, negative = inhibition) at 10uM” value is reported as -19.7%. Take `O=C(Nc1nnc(-c2ccc3c(c2)CCCC3)o1)C1CCCCC1`: the “hERG current change (%, negative = inhibition) at 10uM” value is 4.3%. For the compound `O=S(=O)(c1ccc(Br)s1)N1CCN(c2ccccn2)CC1`, the “hERG current change (%, negative = inhibition) at 10uM” value was 5.03%.

For the compound `Cc1ccc(NS(=O)(=O)c2ccc3c(c2)n(C)c(=O)n3C)cc1C`, the “hERG current change (%, negative = inhibition) at 10uM” value amounted to 14.2%. The figure for `COc1ccc(CCNC(=O)C(C)Sc2ccccc2)cc1OC` (stereo not shown) is 5.6%. To `O=C(NCCSc1c[nH]c2ccccc12)c1ccc2c(c1)OCO2` belongs -17%; to `O=C(COC(=O)CCNS(=O)(=O)c1ccccc1)Nc1ccc(OC(F)F)cc1`, -60.3%; to `Cc1c(C=O)c2ccccc2n1Cc1cccc(F)c1`, -1.84%.

Take `COc1ccc(NC(=O)CSc2nc(C)cc(C)n2)c([N+](=O)[O-])c1`: the “hERG current change (%, negative = inhibition) at 10uM” value is recorded as 11.9%.

Take `COc1ccc(N2CCN(Cc3nc(Cc4cccc(F)c4)no3)C(C)C2)cc1` (stereo not shown): the “hERG current change (%, negative = inhibition) at 10uM” value was -16.4%.

In the case of `CN(Cc1ccco1)S(=O)(=O)c1ccc2c(c1)CCN2C(=O)CCC(=O)O`, the “hERG current change (%, negative = inhibition) at 10uM” value was found to be 19.7%. The figure for `Cc1cccc(-c2nnc(NC(=O)c3ccco3)s2)c1` is 13.9%.

Consider `S=C(Nc1ccc2c(c1)OCCO2)Nc1ccccc1Cl`, for which the “hERG current change (%, negative = inhibition) at 10uM” value is on record as 14.7%. Take `CC(C)OC(=O)c1ccc(NC(=O)c2ccco2)cc1`: the “hERG current change (%, negative = inhibition) at 10uM” value is reported as -17.1%. Consider `Cc1ccc(NC(=O)NC(=O)N(C(C)C)S(=O)(=O)c2ccc(C)cc2)cc1`, for which the “hERG current change (%, negative = inhibition) at 10uM” value is reported as 6.99%. As to `O=S(=O)(c1ccc(-c2n[nH]c(=S)o2)cc1)N1CCCCC1`, the “hERG current change (%, negative = inhibition) at 10uM” value is recorded as 22.4%. To `COc1ccc(CCNC(=O)C2CCN(Cc3nc(-c4ccccc4C)oc3C)CC2)cc1OC` belongs -79.2%; to `COc1ccc(C(=O)Nc2c(N)nc(SCC(=O)Nc3ccc(C(C)=O)cc3)[nH]c2=O)cc1`, 20.1%; to `COc1cccc(C(=O)C2CCCN(Cc3cn(CC(N)=O)c4ccccc34)C2)c1` (stereo not shown), -53%.

In the case of `CC(C)(C)OC(=O)NCCCC[C@H](NC(=O)c1nc[nH]c1C(=O)N1CCN(c2ccccc2)CC1)C(=O)OC(C)(C)C`, the “hERG current change (%, negative = inhibition) at 10uM” value is recorded as -17.2%. Regarding `COC(CNC(=O)C(=O)NCC1OCCN1C(=O)c1ccc(Cl)cc1)OC` (stereo not shown), the “hERG current change (%, negative = inhibition) at 10uM” value amounted to 13.5%. To `Nc1cccc2c1nnn2C1OC(CO)C(O)C(O)C1O` (stereo not shown) belongs 17.7%.

Consider `O=C(N=C1SC2CS(=O)(=O)CC2N1c1ccc(F)c(Cl)c1)C1CCCO1` (stereo not shown), for which the “hERG current change (%, negative = inhibition) at 10uM” value is reported as 6.3%. The figure for `COc1ccccc1-c1nnc(C2CCN(S(=O)(=O)c3cccc([N+](=O)[O-])c3)CC2)o1` is -57.6%; for `CC(C(=O)Nc1ccccc1Cl)c1ccc([N+](=O)[O-])cc1` (stereo not shown) it is -25.3%. For the compound `CC(=O)/C(=N/Nc1ccc(Br)cc1)N1CCCc2ccccc21`, the “hERG current change (%, negative = inhibition) at 10uM” value worked out at 4.06%. The figure for `S=C(Nc1ccccn1)Nc1ccccc1Cl` is 11%; for `O=C(NCC(=O)N1CCCCCC1)c1ccc(Cl)cc1` it is 11.8%.

Turning to `Cc1sc2nc(SCC(=O)NCc3ccco3)n(Cc3ccccc3)c(=O)c2c1C`, the “hERG current change (%, negative = inhibition) at 10uM” value is on record as -3.84%. As for `O=C(NNC(=O)c1ccccc1)C(=O)N1CCCCC1`, the “hERG current change (%, negative = inhibition) at 10uM” value is -0.928%. To `Cc1sc2ncnc(Sc3ccccc3C(=O)O)c2c1C` belongs -14.7%. The figure for `Cc1nc(NC(=O)c2ccccc2)sc1-c1csc(NCc2ccccc2)n1` is -2.97%.

Regarding `COc1ccccc1C/C(N)=N/OC(=O)COc1ccc(C)cc1C`, the “hERG current change (%, negative = inhibition) at 10uM” value was determined as 17.4%. To `COc1ccc(S(=O)(=O)N2CCC(C(=O)NCC3CCCO3)CC2)cc1C` (stereo not shown) belongs 9.95%; to `CCCNC(=O)Cn1nc(C)n2c(cc3cc(F)ccc32)c1=O`, 17.6%. As for `N#CCC(CNc1ncc(C(F)(F)F)cc1Cl)OC(=O)c1ccc(Cl)cc1Cl` (stereo not shown), the “hERG current change (%, negative = inhibition) at 10uM” value was 8.67%. To `O=c1[nH]cccc1-c1nc2ccccc2n1Cc1cccc(F)c1` belongs -12.1%.
